Source: a collection of fitness landscapes (doi:10.1016/j.celrep.2020.107928)
In all, about 81,000 sequences were measured (“one-hybrid fitness for binding parS DNA”: median about -0.17, highest 2% from about 0.51 on). Some of the results follow.

B1: Caulobacter ParB omega fusion; a variant is named by its letters at X, in order, B8GW30 (parent)
chain: MESVVVGEPGMSEGRRGLGRGLSALLGEVDAAPAQAPGEQLGGSREAPIEILQRNPDQPRRTFREEDLEDLSNSIREKGVLQPILVRPSPDTAGEYQIVAGERAWRAAQRAGLKTVPIMVRELDDLAVLEIGIIENVQRADLNVLEEALSYKVLMEKFERTQENIAQTIGKSXSHVANXMRLLXLPDEVQSYLVSGELTAXHARAIAAAADPVALAKQIIEGGLSVRETEALARKAPNLSAGKSKGGRPPRVKDTDTQALESDLSSVLGLDVSIDHRGSTGTLTITYATLEQLDDLCNRLTRGI

Variants of: B1
Assay: one-hybrid fitness for binding parS DNA (scaled: cognate 1, non-cognate 0); higher = stronger binding
Conditions: with parS DNA site
How it was run: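 Selection: bacterial one-hybrid in E. coli USO, HIS3 reporter with the site 19 bp from the promoter, 48 hours at 37°C on M9-minus-histidine plus 0.1 mM IPTG and 5 mM 3-AT. Libraries were Caulobacter ParB with four randomised specificity codons, sequenced on Illumina before and after selection. Fitness is the rescaled log change in variant-to-wild-type read ratio, anchored to the cognate and non-cognate sites.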

Row | Variant | one-hybrid fitness for binding parS DNA
1 | QDLR | ≤ 0.2
2 | TVHY | ≤ 0.2
3 | PRCK | ≤ 0.2
4 | QYYE | ≤ 0.2
5 | FPLH | ≤ 0.2
6 | PGTK | ≤ 0.2
7 | TENP | ≤ 0.2
8 | HNDM | ≤ 0.2
9 | THRS | ≤ 0.2
10 | PSMA | ≤ 0.2
11 | IMYG | ≤ 0.2
12 | TSPW | ≤ 0.2
13 | QPGH | ≤ 0.2
14 | WPIP | ≤ 0.2
15 | VQGG | ≤ 0.2
16 | QCVI | ≤ 0.2
17 | LLNT | ≤ 0.2
18 | SMFI | ≤ 0.2
19 | RMLG | 1.01
20 | GPVY | ≤ 0.2
21 | LPPY | ≤ 0.2
22 | HCDI | ≤ 0.2
23 | SMCG | ≤ 0.2
24 | LWRT | ≤ 0.2

Row | Variant | one-hybrid fitness for binding parS DNA
25 | KTRD | ≤ 0.2
26 | RQNM | 0.325
27 | ECPR | ≤ 0.2
28 | LDCW | ≤ 0.2
29 | NTDG | ≤ 0.2
30 | NRMT | ≤ 0.2
31 | QGAS | ≤ 0.2
32 | PHHT | ≤ 0.2
33 | TGTK | ≤ 0.2
34 | RGWY | ≤ 0.2
35 | RAYG | 1.01
36 | SDCD | ≤ 0.2
37 | TGIR | ≤ 0.2
38 | APSY | ≤ 0.2
39 | PGPW | ≤ 0.2
40 | KNSH | ≤ 0.2
41 | PTAM | ≤ 0.2
42 | LWSD | ≤ 0.2
43 | HKRT | ≤ 0.2
44 | HEPK | ≤ 0.2
45 | KNHM | ≤ 0.2
46 | AMTE | ≤ 0.2
47 | YHQT | ≤ 0.2
48 | RYRH | ≤ 0.2

Row | Variant | one-hybrid fitness for binding parS DNA
49 | SHRT | ≤ 0.2
50 | GSLT | ≤ 0.2
51 | NALK | ≤ 0.2
52 | STDE | ≤ 0.2
53 | TCSG | ≤ 0.2
54 | FSCS | ≤ 0.2
55 | QFTS | ≤ 0.2
56 | LGKN | ≤ 0.2
57 | HPHS | ≤ 0.2
58 | DMQL | ≤ 0.2
59 | KCHW | ≤ 0.2
60 | DTLF | ≤ 0.2
61 | HFTG | ≤ 0.2
62 | KCGG | ≤ 0.2
63 | GYMC | ≤ 0.2
64 | VVSY | ≤ 0.2
65 | GKQW | ≤ 0.2
66 | DLTT | ≤ 0.2
67 | IGGM | 0.272
68 | CSSC | ≤ 0.2
69 | QENL | ≤ 0.2
70 | IVFR | ≤ 0.2
71 | HPPG | ≤ 0.2
72 | STAM | ≤ 0.2

Row | Variant | one-hybrid fitness for binding parS DNA
73 | AFER | ≤ 0.2
74 | FSIG | ≤ 0.2
75 | VLLL | ≤ 0.2
76 | LKAY | ≤ 0.2
77 | PAYA | ≤ 0.2
78 | QKRP | ≤ 0.2
79 | AWPN | ≤ 0.2
80 | ASLA | ≤ 0.2
81 | SFDY | ≤ 0.2
82 | FDAR | ≤ 0.2
83 | DSGT | ≤ 0.2
84 | SLPN | ≤ 0.2
85 | KQFT | ≤ 0.2
86 | RDCF | ≤ 0.2
87 | CNSL | ≤ 0.2
88 | FGRG | ≤ 0.2
89 | SDAR | ≤ 0.2
90 | LNGN | ≤ 0.2
91 | SMAL | ≤ 0.2
92 | QNNW | ≤ 0.2
93 | SPYH | ≤ 0.2
94 | VSPK | ≤ 0.2
95 | DMAC | ≤ 0.2
96 | RDSE | ≤ 0.2

Row | Variant | one-hybrid fitness for binding parS DNA
97 | VGDC | ≤ 0.2
98 | DLND | ≤ 0.2
99 | HLGG | ≤ 0.2
100 | LVSW | ≤ 0.2
101 | ANDP | ≤ 0.2
102 | NVSG | ≤ 0.2
103 | GPLN | ≤ 0.2
104 | KMGG | ≤ 0.2
105 | ANNK | ≤ 0.2
106 | ASSR | ≤ 0.2
107 | RCLW | 0.285
108 | YDYS | ≤ 0.2
109 | NSYW | ≤ 0.2
110 | NQHH | ≤ 0.2
111 | RHFY | 0.377
112 | GPRT | ≤ 0.2
113 | AERH | ≤ 0.2
114 | IDYG | ≤ 0.2
115 | SGKL | ≤ 0.2
116 | DPEY | ≤ 0.2
117 | VNHC | ≤ 0.2
118 | LPYE | ≤ 0.2
119 | VITV | ≤ 0.2
120 | KVIC | ≤ 0.2

Row | Variant | one-hybrid fitness for binding parS DNA
121 | YGGG | ≤ 0.2
122 | VSAG | ≤ 0.2
123 | FLGP | ≤ 0.2
124 | RYVN | 0.364
125 | HSMK | ≤ 0.2
126 | LTCL | ≤ 0.2
127 | LCIK | ≤ 0.2
128 | KLQL | ≤ 0.2
129 | VSVC | ≤ 0.2
130 | QSLM | ≤ 0.2
131 | VSFA | ≤ 0.2
132 | RHGD | ≤ 0.2
133 | RAQN | 0.436
134 | ESYV | ≤ 0.2
135 | VPVM | ≤ 0.2
136 | QGSC | ≤ 0.2
137 | GVYT | ≤ 0.2
138 | ALMN | ≤ 0.2
139 | QNSV | ≤ 0.2
140 | VESC | ≤ 0.2
141 | ITVA | ≤ 0.2
142 | RVQH | 0.223
143 | QHGF | ≤ 0.2
144 | VFPL | ≤ 0.2

Row | Variant | one-hybrid fitness for binding parS DNA
145 | QMKF | ≤ 0.2
146 | SPKH | ≤ 0.2
147 | GPPM | ≤ 0.2
148 | QMLH | ≤ 0.2
149 | QYTA | ≤ 0.2
150 | SPVD | ≤ 0.2
151 | LQGK | ≤ 0.2
152 | PVCY | ≤ 0.2
153 | TYYR | ≤ 0.2
154 | IIIV | ≤ 0.2
155 | GSPQ | ≤ 0.2
156 | WTKS | ≤ 0.2
157 | LYSF | ≤ 0.2
158 | MGRM | ≤ 0.2
159 | EHHG | ≤ 0.2
160 | DTSN | ≤ 0.2
161 | LLRD | ≤ 0.2
162 | VWMT | ≤ 0.2
163 | CTTA | ≤ 0.2
164 | GDNM | ≤ 0.2
165 | ERQC | ≤ 0.2
166 | MSKR | ≤ 0.2
167 | ISAT | ≤ 0.2
168 | FGLT | ≤ 0.2

Row | Variant | one-hybrid fitness for binding parS DNA
169 | KTFS | ≤ 0.2
170 | RQIR | ≤ 0.2
171 | NQLD | ≤ 0.2
172 | SYIT | ≤ 0.2
173 | IHSW | ≤ 0.2
174 | RHME | ≤ 0.2
175 | QCDF | ≤ 0.2
176 | SKNY | ≤ 0.2
177 | KRSK | ≤ 0.2
178 | CRVW | ≤ 0.2
179 | LGAM | ≤ 0.2
180 | MERY | ≤ 0.2
181 | SANS | ≤ 0.2
182 | KCLA | ≤ 0.2
183 | RCRT | 0.818
184 | HPDS | ≤ 0.2
185 | RLAK | ≤ 0.2
186 | RINT | 0.914
187 | VYVE | ≤ 0.2
188 | QETN | ≤ 0.2
189 | MHSH | ≤ 0.2
190 | RTFP | ≤ 0.2
191 | RIAE | ≤ 0.2
192 | QCLV | ≤ 0.2

Row | Variant | one-hybrid fitness for binding parS DNA
193 | SCIV | ≤ 0.2
194 | IPSW | ≤ 0.2
195 | QRRK | ≤ 0.2
196 | HFDG | ≤ 0.2
197 | FFAM | ≤ 0.2
198 | TKMF | ≤ 0.2
199 | PIKT | ≤ 0.2
200 | GGWY | ≤ 0.2
201 | RALP | ≤ 0.2
202 | QCAS | ≤ 0.2
203 | PTYN | ≤ 0.2
204 | LRYK | ≤ 0.2
205 | LDAG | ≤ 0.2
206 | LGQC | ≤ 0.2
207 | DCHR | ≤ 0.2
208 | YHTN | ≤ 0.2
209 | TTNW | ≤ 0.2
210 | RWTL | ≤ 0.2
211 | WPCP | ≤ 0.2
212 | FATL | ≤ 0.2
213 | TRDV | ≤ 0.2
214 | WTCG | ≤ 0.2
215 | MRTW | ≤ 0.2
216 | RDLV | ≤ 0.2

Row | Variant | one-hybrid fitness for binding parS DNA
217 | SHSK | ≤ 0.2
218 | HKFY | ≤ 0.2
219 | LVNY | ≤ 0.2
220 | PVGF | ≤ 0.2
221 | LLIA | ≤ 0.2
222 | PGFY | ≤ 0.2
223 | PKSF | ≤ 0.2
224 | IMKL | ≤ 0.2
225 | NSSS | ≤ 0.2
226 | MMLR | ≤ 0.2
227 | PTPY | ≤ 0.2
228 | RKKP | ≤ 0.2
229 | WVTV | ≤ 0.2
230 | STDI | ≤ 0.2
231 | RWGW | ≤ 0.2
232 | WNDR | ≤ 0.2
233 | KRVA | ≤ 0.2
234 | YRIR | ≤ 0.2
235 | AITP | ≤ 0.2
236 | DPVA | ≤ 0.2
237 | ARHE | ≤ 0.2
238 | TTIC | ≤ 0.2
239 | PTYF | ≤ 0.2
240 | TTMW | ≤ 0.2

Row | Variant | one-hybrid fitness for binding parS DNA
241 | TRGM | ≤ 0.2
242 | AARN | ≤ 0.2
243 | HIAA | ≤ 0.2
244 | SLHE | ≤ 0.2
245 | NAYM | ≤ 0.2
246 | KFYG | ≤ 0.2
247 | ETPC | ≤ 0.2
248 | LYNG | ≤ 0.2
249 | DNSG | ≤ 0.2
250 | INAI | ≤ 0.2
251 | APHF | ≤ 0.2
252 | SIVC | ≤ 0.2
253 | SVTA | ≤ 0.2
254 | WVCS | ≤ 0.2
255 | MAHM | ≤ 0.2
256 | RLMK | ≤ 0.2
257 | QCVN | ≤ 0.2
258 | QHRD | ≤ 0.2
259 | DHKE | ≤ 0.2
260 | QRKM | ≤ 0.2
261 | QQTP | ≤ 0.2
262 | EILC | ≤ 0.2
263 | QAFV | ≤ 0.2
264 | TKNV | ≤ 0.2

Row | Variant | one-hybrid fitness for binding parS DNA
265 | YPPV | ≤ 0.2
266 | RMFL | 0.206
267 | SACN | ≤ 0.2
268 | EWMS | ≤ 0.2
269 | LNAG | ≤ 0.2
270 | WSLK | ≤ 0.2
271 | NKPV | ≤ 0.2
272 | RSQK | ≤ 0.2
273 | LDRA | ≤ 0.2
274 | APGV | ≤ 0.2
275 | MTVD | ≤ 0.2
276 | SKTK | ≤ 0.2
277 | TRAC | ≤ 0.2
278 | RQPK | ≤ 0.2
279 | FTLC | ≤ 0.2
280 | PDEW | ≤ 0.2
281 | ADKN | ≤ 0.2
282 | IALR | ≤ 0.2
283 | GKYN | ≤ 0.2
284 | VWNK | ≤ 0.2
285 | YHKG | ≤ 0.2
286 | KKAA | ≤ 0.2
287 | HRNI | ≤ 0.2
288 | GNHG | ≤ 0.2

Row | Variant | one-hybrid fitness for binding parS DNA
289 | RTSF | 0.246
290 | QPHS | ≤ 0.2
291 | CQLL | ≤ 0.2
292 | SALM | ≤ 0.2
293 | AEMR | ≤ 0.2
294 | RYCK | ≤ 0.2
295 | YETT | ≤ 0.2
296 | QRVF | ≤ 0.2
297 | RAYM | 0.324
298 | HHMT | ≤ 0.2
299 | AFHC | ≤ 0.2
300 | VGDK | ≤ 0.2
301 | MWSW | ≤ 0.2
302 | CTWS | ≤ 0.2
303 | SIKS | ≤ 0.2
304 | PTGC | ≤ 0.2
305 | RRAR | ≤ 0.2
306 | HMRV | ≤ 0.2
